# Reference: the supplement of paper PMC4604168 (melanoma cell lines)
# The other results are listed elsewhere or left out. Most values come without repeats; read them as rough.
# Legend:
# Test in all cases: cell count relative to DMSO control; melanoma cells; higher = more viable cells
# Details in all cases: library dose: standard library concentration; 72 h
# [1] = test system: SkMel28
# [2] = test system: SkMel2
# [3] = test system: SkMel30
# [4] = test system: SkMel5
# [5] = test system: UACC257
# [6] = test system: UACC62
# [7] = test system: WM115
# [8] = test system: WM1716
# [9] = test system: WM1745
# [10] = test system: WM3526
# 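Note: cells treated in 1,536-well plates, then fixed and DAPI-stained, with nuclei counted from automated high-throughput microscope images.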
SMILES,cell count [1] [%],cell count [2] [%],cell count [3] [%],cell count [4] [%],cell count [5] [%],cell count [6] [%],cell count [7] [%],cell count [8] [%],cell count [9] [%],cell count [10] [%]
"Cn1c(=O)n(-c2ccc(C(C)(C)C#N)cc2)c2c3cc(-c4cnc5ccccc5c4)ccc3ncc21 + COc1cc(Nc2ncc(F)c(Nc3ccc4c(n3)NC(=O)C(C)(C)O4)n2)cc(OC)c1OC [Tamatinib] (first compound 0.02 µM, partner dose 2 µM)",59.9,74.1,74.9,35.3,85.1,69.7,68.1,37.6,28.2,65.5
"CC(C)C[C@H](NC(=O)[C@H](Cc1ccccc1)NC(=O)c1cnccn1)B(O)O [Bortezomib] + C#Cc1cccc(Nc2ncnc3cc(OCCOC)c(OCCOC)cc23)c1 [erlotinib] (first compound 0.005 µM, partner dose 4 µM)",37.2,39.2,35.8,31.9,79.8,44.4,30.3,16.4,15.2,30.9
"Cn1c(=O)n(-c2ccc(C(C)(C)C#N)cc2)c2c3cc(-c4cnc5ccccc5c4)ccc3ncc21 + Nc1ccn([C@@H]2O[C@H](CO)[C@@H](O)C2(F)F)c(=O)n1 [gemcitabine] (first compound 0.02 µM, partner dose 0.002 µM)",50,78.5,59,82.8,90.3,57.2,60.7,51,57.9,66.8
"COc1ccc(C2=N[C@@H](c3ccc(Cl)cc3)[C@@H](c3ccc(Cl)cc3)N2C(=O)N2CCNC(=O)C2)c(OC(C)C)c1 [Nutlin-3] + CN1CCN(c2ccc3nc(-c4c(N)c5c(F)cccc5[nH]c4=O)[nH]c3c2)CC1 [Dovitinib] (first compound 0.5 µM, partner dose 0.5 µM)",62.1,88.4,74.6,47.5,69.4,49,60.9,63.4,63.8,74.4
"Cc1cn(-c2cc(NC(=O)c3ccc(C)c(Nc4nccc(-c5cccnc5)n4)c3)cc(C(F)(F)F)c2)cn1 [nilotinib] + Cn1sc(=O)n(Cc2ccccc2)c1=O [TDZD-8] (first compound 1 µM, partner dose 2 µM)",74.7,100,95.4,70.6,124,75,97,109,74.7,110
"Cn1c(=O)n(-c2ccc(C(C)(C)C#N)cc2)c2c3cc(-c4cnc5ccccc5c4)ccc3ncc21 + CO[C@H]1C[C@@H]2CC[C@@H](C)[C@@](O)(O2)C(=O)C(=O)N2CCCC[C@H]2C(=O)O[C@H]([C@H](C)C[C@@H]2CC[C@@H](OCCO)[C@H](OC)C2)CC(=O)[C@H](C)/C=C(\C)[C@@H](O)[C@@H](OC)C(=O)[C@H](C)C[C@H](C)/C=C/C=C/C=C/1C [everolimus] (first compound 0.02 µM, partner dose 0.1 µM)",25.8,32.7,41.1,29.1,73.5,34.2,34.4,56.7,62.2,43.3
"COc1ccc(C2=N[C@@H](c3ccc(Cl)cc3)[C@@H](c3ccc(Cl)cc3)N2C(=O)N2CCNC(=O)C2)c(OC(C)C)c1 [Nutlin-3] + O=C(Nc1cccc(Cl)c1)Nc1ncc(CCNc2ncnc3ccsc23)s1 [SNS314] (first compound 0.5 µM, partner dose 0.004 µM)",38.6,76.4,84.7,70.1,74.2,61.3,43.4,52.5,87.8,83.8
"CC(C)C[C@H](NC(=O)[C@H](Cc1ccccc1)NC(=O)c1cnccn1)B(O)O [Bortezomib] + CN(C)S(=O)(=O)c1ccc2c(c1)/C(=C/c1cc3c([nH]1)CCCC3)C(=O)N2 [SU6656] (first compound 0.005 µM, partner dose 2 µM)",23.7,46.4,30.8,26.4,75.3,59.5,23.5,17.9,30.3,28.7
"COc1ccc(C2=N[C@@H](c3ccc(Cl)cc3)[C@@H](c3ccc(Cl)cc3)N2C(=O)N2CCNC(=O)C2)c(OC(C)C)c1 [Nutlin-3] + COCC[n+]1c2c(n(Cc3cnccn3)c1C)C(=O)c1ccccc1C2=O [YM155] (first compound 0.5 µM, partner dose 0.002 µM)",30.5,34.7,88.6,38.6,28.7,34.9,64.8,68.1,81.8,41
"CC(C)C[C@H](NC(=O)[C@H](Cc1ccccc1)NC(=O)c1cnccn1)B(O)O [Bortezomib] + CO[C@@H]1[C@H](N(C)C(=O)c2ccccc2)C[C@H]2O[C@]1(C)n1c3ccccc3c3c4c(c5c6ccccc6n2c5c31)C(=O)NC4 [Midostaurin] (first compound 0.005 µM, partner dose 0.4 µM)",29.4,17,35.4,29.6,53.1,45.8,19.7,13.4,11.7,22.3
"Cc1cn(-c2cc(NC(=O)c3ccc(C)c(Nc4nccc(-c5cccnc5)n4)c3)cc(C(F)(F)F)c2)cn1 [nilotinib] + C=CCNC1=C2C[C@@H](C)C[C@H](OC)[C@H](O)[C@@H](C)/C=C(\C)[C@H](OC(N)=O)[C@@H](OC)/C=C\C=C(/C)C(=O)NC(=CC1=O)C2=O [Tanespimycin] (first compound 1 µM, partner dose 0.01 µM)",52.4,84.1,114,57.8,93,57.6,23.9,98.6,53.5,68.2
"Cc1cn(-c2cc(NC(=O)c3ccc(C)c(Nc4nccc(-c5cccnc5)n4)c3)cc(C(F)(F)F)c2)cn1 [nilotinib] + NC(=O)c1ccc(N(C(N)=O)c2c(F)cccc2F)nc1-c1ccc(F)cc1F [VX702] (first compound 1 µM, partner dose 2 µM)",107,82.6,109,80.6,101,93.5,114,113,90.9,92.6
"CC(C)C[C@H](NC(=O)[C@H](Cc1ccccc1)NC(=O)c1cnccn1)B(O)O [Bortezomib] + Nc1ncn([C@H]2C[C@H](O)[C@@H](CO)O2)c(=O)n1 [decitabine] (first compound 0.005 µM, partner dose 0.5 µM)",27.8,49.8,39.6,29.1,63.1,56.9,31.5,20.7,12.5,35.9
"CC(C)C[C@H](NC(=O)[C@H](Cc1ccccc1)NC(=O)c1cnccn1)B(O)O [Bortezomib] + O=C(O)c1ccc2c(c1)nc(Nc1cccc(Cl)c1)c1ccncc12 [CX4945] (first compound 0.005 µM, partner dose 2 µM)",22.3,60.1,37.8,22.1,67,50.2,24.6,21.1,21.4,32.9
"Cc1cc(Nc2cc(N3CCN(C)CC3)nc(/C=C/c3ccccc3)n2)n[nH]1 + C=CCn1c(=O)c2cnc(Nc3ccc(N4CCN(C)CC4)cc3)nc2n1-c1cccc(C(C)(C)O)n1 [MK1775] (first compound 0.2 µM, partner dose 0.1 µM)",47.1,64.6,86.1,53,93.3,44.4,44.1,70.4,33.7,69.2
"CC(C)C[C@H](NC(=O)[C@H](Cc1ccccc1)NC(=O)c1cnccn1)B(O)O [Bortezomib] + C=CCn1c(=O)c2cnc(Nc3ccc(N4CCN(C)CC4)cc3)nc2n1-c1cccc(C(C)(C)O)n1 [MK1775] (first compound 0.005 µM, partner dose 0.1 µM)",28.7,48.5,31,37,74.6,68.1,30.1,30.4,19.2,30.3
"Cn1c(=O)n(-c2ccc(C(C)(C)C#N)cc2)c2c3cc(-c4cnc5ccccc5c4)ccc3ncc21 + Clc1ccc(Nc2nnc(Cc3ccncc3)c3ccccc23)cc1 [vatalanib] (first compound 0.02 µM, partner dose 10 µM)",41.4,47.6,73.3,47.1,60.7,58.6,59,67.9,54.7,56
"CC(C)C[C@H](NC(=O)[C@H](Cc1ccccc1)NC(=O)c1cnccn1)B(O)O [Bortezomib] + C[C@@H]1CCN(C(=O)CC#N)C[C@@H]1N(C)c1ncnc2[nH]ccc12 [CP690550] (first compound 0.005 µM, partner dose 5 µM)",45.6,47.5,36.6,37.8,78.9,85.4,38.1,26,22.6,21.5
"Cc1cc(Nc2cc(N3CCN(C)CC3)nc(/C=C/c3ccccc3)n2)n[nH]1 + COc1cc2c(Oc3ccc4[nH]c(C)cc4c3F)ncnc2cc1OCCCN1CCCC1 [cediranib] (first compound 0.2 µM, partner dose 2 µM)",52.9,75.9,102,63.7,92.4,93.3,54.7,72.1,37,79.4
"CC(C)C[C@H](NC(=O)[C@H](Cc1ccccc1)NC(=O)c1cnccn1)B(O)O [Bortezomib] + Nc1cccc2c1CN(C1CCC(=O)NC1=O)C2=O [lenalidomide] (first compound 0.005 µM, partner dose 5 µM)",36.7,54.6,35,37.7,86.2,63.1,21.6,20.6,34.5,31.2
